In the supplement of paper PMC10037445:
Whole data set: some 2,900 compounds, median “NF-kB SEAP reporter activity, fold change vs agonist alone” near 0.99, cut for the highest 2% near 2.6. The list shows a part of the results.

Experiments:
[1] = tested on: RAW-Dual; assay: NF-kB SEAP reporter activity, fold change vs agonist alone; higher = enhanced NF-kB activity
In short: (§1)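 Cytotoxic wells were those whose IncuCyte confluency was below 70% of agonist controls in both mask sets. The cells were RAW-Dual macrophages at 50,000 cells/well in DMEM on 384-well plates, dosed with 50 nL of library stock by pin tool, stimulated with a PRR agonist 1 h later, and kept at 37 °C, 5% CO2 for 20 hours. IRF and NF-κB reporter activity, as fold change over agonist-alone wells, came from supernatant read by QuantiLuc luminescence and QuantiBlue absorbance, respectively.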

[2] = tested on: RAW-Dual; assay: NF-kB SEAP reporter activity, fold change vs agonist alone; cytotoxicity flag (confluency mask): not cytotoxic; higher = enhanced NF-kB activity
In short: as §1

[3] = tested on: RAW-Dual; assay: NF-kB SEAP reporter activity, fold change vs agonist alone; cytotoxicity flag (confluency mask): cytotoxic (confluency <70% of control); higher = enhanced NF-kB activity
In short: as §1

[4] = library stock concentration (final ~1000-fold dilution): 10 mM, cytotoxicity flag (confluency mask): not cytotoxic, agonist: Imiquimod (TLR7) […]
[5] = library stock concentration (final ~1000-fold dilution): 10 mM, cytotoxicity flag (confluency mask): not cytotoxic, agonist: MPLA (TLR4) […]
[6] = agonist: ODN 1826 (TLR9) 0.5 ug/mL
[7] = agonist: Pam2CSK4 (TLR2/6) 0.1 ug/mL
[8] = agonist: Pam3CSK4 (TLR2/1) 0.1 ug/mL
[9] = library stock concentration (final ~1000-fold dilution): 10 mM, cytotoxicity flag (confluency mask): cytotoxic (confluency <70% of control), agonist: Imiquimod (TLR7) […]
[10] = library stock concentration (final ~1000-fold dilution): 10 mM, cytotoxicity flag (confluency mask): cytotoxic (confluency <70% of control), agonist: MPLA (TLR4) […]

In the case of `O=C(O)c1cc(C(F)(F)F)ccc1N1CCC(OCc2ccccn2)C1` (centres undefined), the “NF-kB SEAP reporter activity” value [1, 4] is reported as 1.22 and the “NF-kB SEAP reporter activity” value [1, 5] is reported as 1.43.
`CCN(CC)C(=O)N1CCN(C)CC1.O=C(O)CC(O)(CC(=O)O)C(=O)O` (library stock concentration (final ~1000-fold dilution): 10 mM) was tested, and the “NF-kB SEAP reporter activity” value ([2]; agonist: LPS (TLR4) 0.1 ug/mL) was 1.09, the “NF-kB SEAP reporter activity” value [2, 6] was 1 and the “NF-kB SEAP reporter activity” value [2, 7] was 0.878. The “NF-kB SEAP reporter activity” value [2, 8] was 0.981.
In the case of `CCN(CC)C(=O)N1CCN(C)CC1.O=C(O)CC(O)(CC(=O)O)C(=O)O`, the “NF-kB SEAP reporter activity” value [1, 4] is reported as 0.932 and the “NF-kB SEAP reporter activity” value [1, 5] is reported as 0.984.
For `O=C1/C(=C/c2cccs2)CC/C1=C\c1cccs1` (library stock concentration (final ~1000-fold dilution): 2 mM), the “NF-kB SEAP reporter activity” value ([2]; agonist: LPS (TLR4) 0.1 ug/mL) was 1.19, the “NF-kB SEAP reporter activity” value [2, 6] was 1.01 and the “NF-kB SEAP reporter activity” value [2, 7] was 1.01. The “NF-kB SEAP reporter activity” value [2, 8] was 1.18.
With `O=C1/C(=C/c2cccs2)CC/C1=C\c1cccs1` the “NF-kB SEAP reporter activity” value ([1]; library stock concentration (final ~1000-fold dilution): 2 mM, cytotoxicity flag (confluency mask): not cytotoxic, agonist: Imiquimod (TLR7) […]) was 0.91 and the “NF-kB SEAP reporter activity” value ([1]; library stock concentration (final ~1000-fold dilution): 2 mM, cytotoxicity flag (confluency mask): not cytotoxic, agonist: MPLA (TLR4) […]) was 1.09.
`CCCc1nc(C(C)(C)O)c(C(=O)OCc2oc(=O)oc2C)n1Cc1ccc(-c2ccccc2-c2nn[nH]n2)cc1` was tested, and the “NF-kB SEAP reporter activity” value [1, 4] was 0.882 and the “NF-kB SEAP reporter activity” value [1, 5] was 1.04.
With `CCCc1nc(C(C)(C)O)c(C(=O)OCc2oc(=O)oc2C)n1Cc1ccc(-c2ccccc2-c2nn[nH]n2)cc1` (library stock concentration (final ~1000-fold dilution): 10 mM) the “NF-kB SEAP reporter activity” value ([2]; agonist: LPS (TLR4) 0.1 ug/mL) was 1.01, the “NF-kB SEAP reporter activity” value [2, 6] was 0.995 and the “NF-kB SEAP reporter activity” value [2, 7] was 1.06. For the same compound, the “NF-kB SEAP reporter activity” value [2, 8] was 1.03.
For `C=C1C(CO)C(O)CC1n1cnc2c(=O)nc(N)[nH]c21` (centres undefined), the “NF-kB SEAP reporter activity” value [1, 5] was 1.07.
For `C=C1C(CO)C(O)CC1n1cnc2c(=O)nc(N)[nH]c21` (centres undefined) (library stock concentration (final ~1000-fold dilution): 10 mM), the “NF-kB SEAP reporter activity” value ([2]; agonist: LPS (TLR4) 0.1 ug/mL) was 1.32, the “NF-kB SEAP reporter activity” value [2, 6] was 0.996 and the “NF-kB SEAP reporter activity” value [2, 7] was 1.37. The “NF-kB SEAP reporter activity” value [2, 8] was 0.846.
With `CC1(C(=O)Nc2ccc(F)nc2)CCCN1c1nc(Nc2cc(C3CC3)[nH]n2)c2cccn2n1` (centres undefined) the “NF-kB SEAP reporter activity” value [1, 4] was 1.27 and the “NF-kB SEAP reporter activity” value [1, 5] was 1.19.
`CC1(C(=O)Nc2ccc(F)nc2)CCCN1c1nc(Nc2cc(C3CC3)[nH]n2)c2cccn2n1` (centres undefined) (library stock concentration (final ~1000-fold dilution): 10 mM) was tested, and the “NF-kB SEAP reporter activity” value ([2]; agonist: LPS (TLR4) 0.1 ug/mL) was 0.844, the “NF-kB SEAP reporter activity” value [2, 6] was 1.04 and the “NF-kB SEAP reporter activity” value [2, 7] was 0.468. The “NF-kB SEAP reporter activity” value [2, 8] was 0.664.
For `COS(=O)(=O)[O-].COc1cc(N)cn[n+]1-c1ccccc1`, the “NF-kB SEAP reporter activity” value [1, 4] was 0.917 and the “NF-kB SEAP reporter activity” value [1, 5] was 1.08.
`COS(=O)(=O)[O-].COc1cc(N)cn[n+]1-c1ccccc1` (library stock concentration (final ~1000-fold dilution): 10 mM) was tested, and the “NF-kB SEAP reporter activity” value ([2]; agonist: LPS (TLR4) 0.1 ug/mL) was 1.01, the “NF-kB SEAP reporter activity” value [2, 6] was 0.939 and the “NF-kB SEAP reporter activity” value [2, 7] was 0.993. The “NF-kB SEAP reporter activity” value [2, 8] was 0.97.
With `CN1CCC(=C2c3ccccc3CCc3sccc32)CC1.O=C(O)CC(O)C(=O)O` (library stock concentration (final ~1000-fold dilution): 10 mM) the “NF-kB SEAP reporter activity” value ([3]; agonist: LPS (TLR4) 0.1 ug/mL) was 1.08, the “NF-kB SEAP reporter activity” value [3, 6] was 0.512 and the “NF-kB SEAP reporter activity” value [3, 7] was 0.669. For the same compound, the “NF-kB SEAP reporter activity” value [3, 8] was 0.792.
`CN1CCC(=C2c3ccccc3CCc3sccc32)CC1.O=C(O)CC(O)C(=O)O` was tested, and the “NF-kB SEAP reporter activity” value [1, 9] was 1.44 and the “NF-kB SEAP reporter activity” value [1, 10] was 1.21.
`O=C1C[C@@H](c2ccc(O[C@@H]3O[C@H](CO)[C@@H](O)[C@H](O)[C@H]3O)cc2)Oc2cc(O)ccc21` was tested, and the “NF-kB SEAP reporter activity” value [1, 4] was 1.17 and the “NF-kB SEAP reporter activity” value [1, 5] was 1.18.
For `O=C1C[C@@H](c2ccc(O[C@@H]3O[C@H](CO)[C@@H](O)[C@H](O)[C@H]3O)cc2)Oc2cc(O)ccc21` (library stock concentration (final ~1000-fold dilution): 10 mM), the “NF-kB SEAP reporter activity” value ([2]; agonist: LPS (TLR4) 0.1 ug/mL) was 0.734, the “NF-kB SEAP reporter activity” value [2, 6] was 0.871 and the “NF-kB SEAP reporter activity” value [2, 7] was 0.793. For the same compound, the “NF-kB SEAP reporter activity” value [2, 8] was 0.946.
For `Nc1ccn(C2CSC(CO)O2)c(=O)n1` (centres undefined) (library stock concentration (final ~1000-fold dilution): 10 mM), the “NF-kB SEAP reporter activity” value ([2]; agonist: LPS (TLR4) 0.1 ug/mL) was 0.862, the “NF-kB SEAP reporter activity” value [2, 6] was 1.03 and the “NF-kB SEAP reporter activity” value [2, 7] was 0.999. For the same compound, the “NF-kB SEAP reporter activity” value [2, 8] was 1.11.
For `Nc1ccn(C2CSC(CO)O2)c(=O)n1` (centres undefined), the “NF-kB SEAP reporter activity” value [1, 4] was 0.893 and the “NF-kB SEAP reporter activity” value [1, 5] was 1.04.
`Cc1c(Cl)cccc1Nc1ccccc1C(=O)O` (library stock concentration (final ~1000-fold dilution): 10 mM) was tested, and the “NF-kB SEAP reporter activity” value ([2]; agonist: LPS (TLR4) 0.1 ug/mL) was 1.06, the “NF-kB SEAP reporter activity” value [2, 6] was 0.863 and the “NF-kB SEAP reporter activity” value [2, 7] was 0.677. The “NF-kB SEAP reporter activity” value [2, 8] was 0.869.
`Cc1c(Cl)cccc1Nc1ccccc1C(=O)O` was tested, and the “NF-kB SEAP reporter activity” value [1, 4] was 0.738 and the “NF-kB SEAP reporter activity” value [1, 5] was 0.984.
With `Cc1ccc(S(=O)(=O)C=CC#N)cc1` the “NF-kB SEAP reporter activity” value [1, 9] was 0.215 and the “NF-kB SEAP reporter activity” value [1, 10] was 0.281.
`Cc1ccc(S(=O)(=O)C=CC#N)cc1` (library stock concentration (final ~1000-fold dilution): 10 mM) was tested, and the “NF-kB SEAP reporter activity” value ([3]; agonist: LPS (TLR4) 0.1 ug/mL) was 0.282, the “NF-kB SEAP reporter activity” value [3, 6] was 0.217 and the “NF-kB SEAP reporter activity” value [3, 7] was 0.0769. For the same compound, the “NF-kB SEAP reporter activity” value [3, 8] was 0.179.
`CN1CCC(NC(=O)Nc2ccc(C#N)cc2)CC1c1nc2ccccc2[nH]1` (centres undefined) was tested, and the “NF-kB SEAP reporter activity” value [1, 4] was 0.96 and the “NF-kB SEAP reporter activity” value [1, 5] was 1.05.
With `CN1CCC(NC(=O)Nc2ccc(C#N)cc2)CC1c1nc2ccccc2[nH]1` (centres undefined) (library stock concentration (final ~1000-fold dilution): 10 mM) the “NF-kB SEAP reporter activity” value ([2]; agonist: LPS (TLR4) 0.1 ug/mL) was 0.952, the “NF-kB SEAP reporter activity” value [2, 6] was 1.01 and the “NF-kB SEAP reporter activity” value [2, 7] was 1.05. The “NF-kB SEAP reporter activity” value [2, 8] was 0.998.
`Cl.O=S(=O)(c1cccc2cnccc12)N1CCCNCC1` was tested, and the “NF-kB SEAP reporter activity” value [1, 4] was 0.836 and the “NF-kB SEAP reporter activity” value [1, 5] was 0.975.
In the case of `Cl.O=S(=O)(c1cccc2cnccc12)N1CCCNCC1` (library stock concentration (final ~1000-fold dilution): 10 mM), the “NF-kB SEAP reporter activity” value ([2]; agonist: LPS (TLR4) 0.1 ug/mL) is reported as 0.728, the “NF-kB SEAP reporter activity” value [2, 6] is reported as 0.9 and the “NF-kB SEAP reporter activity” value [2, 7] is reported as 1.31. For the same compound, the “NF-kB SEAP reporter activity” value [2, 8] was 1.29.
